Some of the results follow. Sequences were assembled here from the parent chain. Inactive controls read about 0.05.
B1: TEV protease; numbered along this chain (parent)
chain: MGESLFKGPRDYNPISSSICHLTNESDGHTTSLYGIGFGPFIITNKHLFRRNNGTLVVQSLHGVFKVKDTTTLQQHLVDGRDMIIIRMPKDFPPFPQKLKFREPQREERICLVTTNFQTKSMSSMVSDTSCTFPSGDGIFWKHWIQTKDGQCGSPLVSTRDGFIVGIHSASNFTNTNNYFTSVPKNFMELLTNQEAQQWVSGWRLNADSVLWGGHKVFMVKPEEPFQPVKEATQL

Variants of: B1
Assay: raw area under fraction-flipped curve 0-4 h after induction (AUC4h, not background-subtracted), DNA-recorder readout of cleavage of the substrate (dimensionless); higher = more cleavage of the substrate by the protease variant
Details: temperature: 34 °C; time window: 0-4 h after rhamnose induction
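Also: Bxb1 expression induced with 0.2% (w/v) L-rhamnose at OD600 near 0.5, cultures sampled hourly, flipped fraction per protease–substrate barcode pair counted by paired-end Illumina sequencing.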

Row | Variant | area with substrate ENLYFDS | area with substrate ENLYFFS | area with substrate ENLYFGS | area with substrate ENLYFHS | area with substrate ENLYFIS | area with substrate ENLYFKS | area with substrate ENLYFLS | area with substrate ENLYFMS | area with substrate ENLYFNS | area with substrate ENLYFPS | area with substrate ENLYFRS | area with substrate ENLYFSS | area with substrate ENLYFTS | area with substrate ENLYFYS | area with substrate ENLYFES | area with substrate ENLYFVS | area with substrate ENLYFWS
1 | MGESLFKGPRDYNPISSSICHLTNESDGHTTSLYGIGFGPFIITNKHLFRRNNGTLVVQSLHGVFKVKDTTTLQQHLVDGRDMIIIRMPKDFPPFPQKLKFREPQREERICLVTTNFQTKSMSSMVSDTSCTFPSGGGIFWKHWIQTKDGQCGSPLVSTRDGFIVGIHSASNFTNTNNYFTSVPKNFMELLTNQEAQQWVSGWRLNADSVLWGGHKVFMVKPEEPFQPVKEATQL [D137G] | 0.0589 | 0.0648 | 0.0548 | 0.0598 | 0.055 | 0.0596 | 0.0457 | 0.0636 | 0.0719 | 0.0588 | 0.0565 | 0.065 | 0.0624 | 0.0295 |  |  | 
2 | MGESLFKGPRDYNPISSSICHLTNESDGHTTSLYGIGFGPFIITNKHLFRRNNGTLVVQSLHGVFKVKDTTTLQQHLVDGRDMIIIRMPKDFPPFPQKLKFREPQREERICLVTTNFQTKSMSSMVSDTSCTFPSGDGIFWKHWIQTKDGQCGSPLVSTRDGFIVGIHSASNFTNTNNYFTSVPKNKMELLTNQEAQQWVSGWRLNADSVLWGGHKVFMVKPEEPFQPVKEATQL [F187K] | 0.0487 |  |  | 0.0557 | 0.057 |  |  | 0.0061 |  | 0.0336 |  | 0.0482 |  | 0.036 |  |  | 
3 | MGESLFKGPRDYNPISSSICHLTNESDGHTTSLYGIGFGPFIITNKHLFSRNNGTLVVQSLHGVFKVKDTTTLQQHLVDGRDMIIIRMPKDFPPFPQKLKFREPQREERICLVTTNFQTKSMSSMVSDTSCTFPSGDGIFWKHWIQTKDGQCGSPLVSTRDGFIVGIHSASNFTNTNNYFTSVPKNFMELLTNQEAQQWVSGWRLNADSVLWGGHKVFMVKPEEPFQPVKEATQL [R50S] | 0.0665 |  |  | 0.0606 |  |  |  |  | 0.0594 | 0.0514 |  |  | 0.0466 |  | 0.0724 |  | 
4 | MVESLFKGPRDYNPISSSICHLTNESDGHTTSLYGIGFGPFIITNKHLFRRNNGTLVVQSLHGVFKVKDTTTLQQHLVDGRDMIIIRMPKDFPPFPQKLKFREPQREERICLVTTNFQTKSMSSMVSDTSCTFPSGDGIFWKHWIQTKDGQCGSPLVSTRDGFIVGIHSASNFTNTNNYFTSVPKNFMELLTNQEAQQWVSGWRLNADSVLWGGHKVFMVKPEEPFQPVKEATQL [G2V] | 0.0575 | 0.0551 |  |  | 0.0576 |  |  | 0.0743 | 0.0788 |  | 0.0364 | 0.0163 | 0.0908 | 0.0653 |  | 0.0466 | 0.0635
5 | MGESLFKGPRDYNPISSSICHLFNESDGHTTSLYGIGFGPFIITNKHLFRRNNGTLVVQSLHGVFKVKDTTTLQQHLVDGRDMIIIRMPKDFPPFPQKLKFREPQREERICLVTTNFQTKSMSSMVSDTSCTFPSGDGIFWKHWIQTKDGQCGSPLVSTRDGFIVGIHSASNFTNTNNYFTSVPKNFMELLTNQEAQQWVSGWRLNADSVLWGGHKVFMVKPEEPFQPVKEATQL [T23F] | 0.0647 | 0.0735 | 0.061 | 0.0577 | 0.0523 |  | 0.055 | 0.0843 | 0.0753 | 0.0548 | 0.0618 | 0.0759 | 0.0571 | 0.054 | 0.0596 |  | 0.0547
6 | MGESIFKGPRDYNPISSSICHLTNESDGHTTSLYGIGFGPFIITNKHLFRRNNGTLVVQSLHGVFKVKDTTTLQQHLVDGRDMIIIRMPKDFPPFPQKLKFREPQREERICLVTTNFQTKSMSSMVSDTSCTFPSGDGIFWKHWIQTKDGQCGSPLVSTRDGFIVGIHSASNFTNTNNYFTSVPKNFMELLTNQEAQQWVSGWRLNADSVLWGGHKVFMVKPEEPFQPVKEATQL [L5I] | 0.0494 | 0.0642 |  |  | 0.0647 |  |  |  | 0.051 | 0.0639 |  | 0.0492 |  |  | 0.0577 |  | 
7 | MGESLFKGPRDYNPISSSICHLTNESDGHTTSLYGIGFGPFIITNKHLFRRNNGTLVVQSLHGVFKVKDTTTLQQHLVDGRDMIIIRMPKDFPPFPQKLKFREPQREERICLVTTNFQTKSMSSMVSDTSCTFPSGDGIFWKHWIQTKDGQCGSPLVSTRDGFIVGIHSASNFTNTWNYFTSVPKNFMELLTNQEAQQWVSGWRLNADSVLWGGHKVFMVKPEEPFQPVKEATQL [N177W] | 0.0732 | 0.057 |  | 0.0614 | 0.0579 |  |  | 0.0728 | 0.0693 |  | 0.0523 | 0.0487 | 0.0673 |  |  |  | 0.0608
8 | MGESLFKGPRDYNPISSSICHLTNESDGHTTSLYGIGFGPFIITNKHLFRRNNGTLVVQSLHGVFKVKDTTTLQQHLVDGRDMIIIRMPKDFPPFPQKLKFREPQREERICLVTTNFQTKSMSSMVSDTSCTFPSGDGIFWKHWIQTKDGQCGSPLVSTRDGFIVGIHSASNFTNTNNYFTSVPKNFMELLTNQEAQQWVSGWRLNADSVLWGGHKVFMVKPEEPFQPVKEATQV [L235V] | 0.0634 | 0.0478 |  |  | 0.0632 |  | 0.0564 |  |  | 0.0918 |  |  |  |  | 0.0525 |  | 0.055
9 | MGESLFKGPRDYNPISSSICHLTNESDGHTTSLYGIGFGPFIITNKHLFRRNNGTLVVQSLHGVFKVKDTTTLQQHLVDGRDMIIIRMPKDFPPFPQKLKFREPQREERICLVTTNFQTKSMSSMVSDTSCTFPSGDGIFWKHWIQTKDGQCGSPLVSTRDGFIVGIHSASNFTNTNNYFTSVPKNFMELLTNQEAQQWVSGWRLNADSVLWGGHKVFMVKPEEPFQPVKEAVQL [T233V] | 0.0458 |  | 0.073 |  | 0.0575 | 0.0657 |  | 0.0603 | 0.0596 | 0.0499 | 0.0763 |  | 0.0547 | 0.0525 | 0.0675 |  | 0.0624
10 | MGESLFKGPRDYNPISSSICHLTNESDGHTTSLYGIGFGPFIITNKHLFRRNNGTLVVQSLHGVFKVKDTTTLQQHLVDGRDMIIIRMPKDFPPFPQKLKFREPQREERICLVTTNFETKSMSSMVSDTSCTFPSGDGIFWKHWIQTKDGQCGSPLVSTRDGFIVGIHSASNFTNTNNYFTSVPKNFMELLTNQEAQQWVSGWRLNADSVLWGGHKVFMVKPEEPFQPVKEATQL [Q118E] | 0.063 |  |  | 0.0567 | 0.0579 |  | 0.0635 |  | 0.0617 | 0.0583 | 0.0836 |  | 0.0837 |  | 0.0658 |  | 

From the supplement of paper PMC12217912
